# Results taken from PubChem BioAssay AID463173 (ICCB-Longwood Screening Facility, Harvard Medical School, 2010).
# Screen size: about 52,000 compounds; about 1,700 (3.3%) were called active. Rule as the data show it: active = survival mostly below about 52% (no sharp cut-off); inactive = mostly above about 56%. Some of the results follow.
# System: Wild type
# Assay: growth inhibition of S. aureus wild type versus tarO mutant, primary screen, teichoic acid synthesis inhibitors, RN4220, OD600 (AID 463173)
# Conditions: S. aureus RN4220 wild type/DeltatarO growth, OD600, 18 h, hits give low values, screened at 18.75 µg/mL (by protocol)
row,Structure (SMILES),survival
1,O=C(CCC(=O)N1CCOc2ccccc21)NCc1cccs1,inactive: 83%
2,COc1ccc(Cn2c(CNC(=O)Cc3ccc(OC)c(OC)c3)nc3cccnc32)cc1,inactive: 72%
3,Cc1cc(N2CCN(C)CC2)nc2ccc(NC(=O)Nc3ccc(F)cc3)cc12,inactive: 78%
4,O=S(=O)(NCCc1nnc2ccc(SCc3cccc(Cl)c3)nn12)c1ccccc1,inactive: 70%
5,CC(=O)N1CCCc2cc(S(=O)(=O)N3CCCC(C(=O)Nc4ccc(F)cc4F)C3)ccc21 (stereo not given),inactive: 83%
6,COc1ccc(-c2cc(C(F)(F)F)c(C#N)c(SCC(=O)Nc3cccc(C)c3)n2)cc1,inactive: 74%
7,O=C(NCC(c1ccco1)S(=O)(=O)c1ccc(Cl)cc1)c1ccc(C(F)(F)F)cc1 (stereo not given),active: -1%
8,O=C(Cn1c(=O)n(Cc2ccco2)c(=O)c2sc3ccccc3c21)Nc1ccc(F)cc1F,inactive: 84%
9,COc1ccc(C(=O)N(Cc2ccco2)Cc2ccccc2F)cc1Cl,inactive: 107%
10,O=C1CCC(C(=O)Nc2ccccc2)N1 (stereo not given),inactive: 110%
11,Cc1ccc(Cn2c(SCc3ccc(C(=O)O)cc3)nc3cccnc32)cc1,inactive: 82%
12,O=C1CCCC(O)=C1C=Nc1cccc(C(F)(F)F)c1,inactive: 111%
13,COc1cccc(CC(=O)Nc2c(C(=O)N3CCN(c4ccccc4)CC3)oc3ccccc23)c1,inactive: 76%
14,CC(Sc1nc(NC(C)(C)C)nc(N(C)C)n1)C(=O)Nc1ccccc1 (stereo not given),inactive: 103%
15,CC1CCCCC1NC(=O)CSc1nncn1N (stereo not given),inactive: 108%
16,CCOc1ccc(CCNC(=O)c2ccc3nc(N4CCC(C)CC4)sc3c2)cc1OCC,inactive: 73%
17,CCOC(=O)CCc1c(C)c2cc3c(c(C)c2oc1=O)OCN(CCc1ccccc1OC)C3,inactive: 83%
18,CCN(CCCNC(=O)CN1N=C(c2ccccc2)CCC1=O)c1cccc(C)c1,inactive: 136%
19,CCC(C)n1c(=O)c2sccc2n2c(CCCC(=O)Nc3ccc(F)cc3)nnc12 (stereo not given),inactive: 97%
20,CSc1ncc(Cl)c(C(=O)Nc2c(C(=O)c3ccc(C)cc3)oc3ccccc23)n1,inactive: 88%
21,Cc1ccc(NC(=O)NC(C)c2c(-n3cccc3)sc(C)c2C)c(C)c1 (stereo not given),inactive: 80%
22,Cc1ccc(SCC(=O)Nc2ccc(O)c(-c3nc4cc(C)ccc4o3)c2)cc1,inactive: 83%
23,Cc1ccccc1-n1c(SCC(=O)c2ccccc2)nnc1-c1ccc(F)cc1,inactive: 136%

row,Structure (SMILES),survival
1,COc1ccc(NC(=O)c2ccco2)cc1NC(=O)c1cccc(C)c1OC,inactive: 60%
2,COc1cc(OC)cc(C(=O)Nc2cc(NC(=O)c3ccco3)ccc2OC)c1,inactive: 116%
3,O=C(Nc1ccccc1)C1CCN(S(=O)(=O)c2ccc3c(c2)CCCN3C(=O)C2CCC2)CC1,inactive: 66%
4,Cc1ccc2c(CN3CCN(c4ccc(Cl)cc4)CC3)cc(=O)oc2c1,inactive: 82%
5,Cc1ccc(CNC(=O)CCCCCn2c(=O)c3sccc3n(CC(=O)C(C)(C)C)c2=O)cc1,inactive: 77%
6,CC1CCCCN1CC(=O)N1CCN(C(=O)CN2CCCCC2C)CC1 (stereo not given),inactive: 106%
7,COc1ccc(Cn2c(CCC(=O)Nc3cc(C)cc(C)c3)nc3cccnc32)cc1,inactive: 132%
8,Cc1ccc(NC(=O)CSc2nc(=O)n(Cc3ccncc3)c3c2CCC3)cc1Cl,inactive: 99%
9,CCOc1cc(CNC(=O)CSc2n[nH]c(-c3ccccc3)n2)cc(OCC)c1OCC,inactive: 131%
10,Cc1ccc(Cl)cc1N(C)C(=O)c1sc2nc3n(c(=O)c2c1C)CCCC3,inactive: 77%
11,CCC(c1nnnn1CCc1ccccc1)N(Cc1ccco1)Cc1cc2cc(C)ccc2[nH]c1=O (stereo not given),inactive: 106%
12,COc1ccc(Nc2ncc(C(=O)Nc3cccc(OC)c3)c3ccccc23)cc1,inactive: 130%
13,O=C1NC(c2ccco2)Nc2ccccc21 (stereo not given),inactive: 124%
14,O=C(NCC1(c2ccccc2)CCCC1)C(=O)Nc1cccc(C(F)(F)F)c1,inactive: 104%
15,COc1ccc2nc(NS(=O)(=O)c3ccc(C)cc3)c(Nc3cc(Cl)ccc3OC)nc2c1,inactive: 68%
16,O=C(O)c1ccc(N2CCOCC2)cc1,inactive: 108%
17,N#CC1=C(N)OC2=C(C(=O)CCC2)C1c1ccccc1C(F)(F)F (stereo not given),inactive: 109%
18,CCOc1ccc(CCNC(=O)CSc2cc(=O)n(C)c3ccccc23)cc1OCC,inactive: 127%
19,O=C1CC(c2ccccc2)Cc2[nH]c(=O)c(-c3nc(-c4cccc(Cl)c4)cs3)cc21 (stereo not given),inactive: 81%
20,CCOC(=O)Cn1c(=O)oc2cc(S(=O)(=O)NCc3ccc(F)cc3)ccc21,inactive: 69%
21,COc1ccc(CNC(=O)C(=O)NCC(c2ccc3c(c2)OCO3)N2CCOCC2)cc1 (stereo not given),inactive: 80%
22,O=C(CSc1n[nH]c(-c2ccccc2)n1)N1CCCCC1,inactive: 51%
